# Measured values from the supplement of paper PMC8728848.
# Some of the results follow.
# B1: F17dG (Escherichia coli), Q47199 (protein)
# chain: MTNFYKVFLAVFILVCCNISQAAVSFIGSTENDVGPSPGSYSRTHAMDNLPFVYNTGNNIGYQNANVWRISKGFCVGLDGKVDLPVVGSLDGQSIYGLTEEVGLLIWMGDTNYSRGTAMSGNSWENVFSGWCVGANTASTQGLSVRVTPVILKRNSSARYSVQKTSIGSIRMRPYNGSSAGSVQTTVNFSLNPFTLNDTVTSCRLLTPSAVNVSLAAISAGQLPSSGDEVVAGTTSLKLQCDAGVTVWATLTDATTPSNRSDILTLTGASTATGVGLRIYKNTDSTPLKFGPDSPVKGNENQWQLSTGTETSPSVRLYVKYVNTGEGINPGTVNGISTFTFSYQ
# How the values were obtained:
# Assay in all cases: glycan array binding signal (z-score within array); higher = stronger binding
# Conditions in all cases: glycan notation: IUPAC condensed, linker removed
# [1] = target: GlcNAc(a1-3)Gal(b1-4)GlcNAc
# How it was run: (§1)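 The binding signal is a Z-score computed within each array. Data were drawn from 3228 arrays in the Consortium for Functional Glycomics database, restricted to those with a known protein sequence. Scores were averaged over arrays of the same protein sequence at different concentrations or buffers, and over linkers, and negative values can be taken as non-binding.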
# [2] = target: GlcNAc(a1-6)Gal(b1-4)GlcNAc
# How it was run: as §1
# [3] = target: GlcNAc(b1-2)Gal(b1-3)GalNAc
# How it was run: as §1
# [4] = target: GlcNAc(b1-2)Man(a1-3)[GlcNAc(b1-2)Man(a1-6)]Man(b1-4)GlcNAc(b1-4)GlcNAc
# How it was run: as §1
# [5] = target: GlcNAc(b1-3)Gal
# How it was run: as §1
# [6] = target: GlcNAc(b1-3)Gal(b1-3)GalNAc
# How it was run: as §1
# [7] = target: GlcNAc(b1-3)Gal(b1-4)Glc
# How it was run: as §1
# [8] = target: GlcNAc(b1-3)Gal(b1-4)GlcNAc
# How it was run: as §1
# [9] = target: GlcNAc(b1-3)Gal(b1-4)GlcNAc(b1-3)Gal(b1-4)GlcNAc
# How it was run: as §1
# [10] = target: GlcNAc(b1-3)GalNAc
# How it was run: as §1
# [11] = target: GlcNAc(b1-3)[GlcNAc(b1-6)]Gal(b1-4)GlcNAc
# How it was run: as §1
# [12] = target: GlcNAc(b1-3)[GlcNAc(b1-6)]GalNAc
# How it was run: as §1
# [13] = target: GlcNAc(b1-3)[GlcNAc(b1-6)]GlcNAc(b1-4)GlcNAc
# How it was run: as §1
# [14] = target: GlcNAc(b1-4)Gal(b1-4)GlcNAc
# How it was run: as §1
# [15] = target: GlcNAc(b1-4)GlcNAc(b1-4)GlcNAc
# How it was run: as §1
# [16] = target: GlcNAc(b1-4)GlcNAc(b1-4)GlcNAc(b1-4)GlcNAc(b1-4)GlcNAc
# How it was run: as §1
# [17] = target: GlcNAc(b1-4)GlcNAc(b1-4)GlcNAc(b1-4)GlcNAc(b1-4)GlcNAc(b1-4)GlcNAc
# How it was run: as §1
# [18] = target: GlcNAc(b1-4)[GlcNAc(b1-6)]GalNAc
# How it was run: as §1
# [19] = target: GlcNAc(b1-6)Gal(b1-4)GlcNAc
# How it was run: as §1
# [20] = target: GlcNAc(b1-6)GalNAc
# How it was run: as §1
# [21] = target: Kdn(a2-3)Gal(b1-3)GlcNAc
# How it was run: as §1
# [22] = target: Kdn(a2-3)Gal(b1-4)GlcNAc
# How it was run: as §1
# [23] = target: Man(a1-2)Man(a1-2)Man(a1-3)Man
# How it was run: as §1
# [24] = target: Man(a1-2)Man(a1-2)Man(a1-6)[Man(a1-3)]Man
# How it was run: as §1
# [25] = target: Man(a1-2)Man(a1-3)Man
# How it was run: as §1
# [26] = target: Man(a1-2)Man(a1-3)[Man(a1-2)Man(a1-6)]Man
# How it was run: as §1
# [27] = target: Man(a1-2)Man(a1-3)[Man(a1-2)Man(a1-6)]Man(a1-6)[Man(a1-2)Man(a1-2)Man(a1-3)]Man(b1-4)GlcNAc(b1-4)GlcNAc
# How it was run: as §1
# [28] = target: Man(a1-2)Man(a1-3)[Man(a1-6)]Man(a1-6)[Man(a1-2)Man(a1-3)]Man(b1-4)GlcNAc(b1-4)GlcNAc
# How it was run: as §1
# [29] = target: Man(a1-2)Man(a1-6)[Man(a1-3)]Man(a1-6)[Man(a1-2)Man(a1-2)Man(a1-3)]Man(b1-4)GlcNAc(b1-4)GlcNAc
# How it was run: as §1
# [30] = target: Man(a1-3)[Man(a1-6)]Man
# How it was run: as §1
# [31] = target: Man(a1-3)[Man(a1-6)]Man(a1-6)[Man(a1-2)Man(a1-3)]Man(b1-4)GlcNAc(b1-4)GlcNAc
# How it was run: as §1
# [32] = target: Man(a1-3)[Man(a1-6)]Man(a1-6)[Man(a1-3)]Man(b1-4)GlcNAc(b1-4)GlcNAc
# How it was run: as §1
# [33] = target: Man(a1-3)[Man(a1-6)]Man(b1-4)GlcNAc(b1-4)GlcNAc
# How it was run: as §1
# [34] = target: Man(b1-4)GlcNAc
# How it was run: as §1
# [35] = target: Neu5Ac(a2-3)Gal
# How it was run: as §1
# [36] = target: Neu5Ac(a2-3)Gal(b1-3)GalNAc
# How it was run: as §1
# [37] = target: Neu5Ac(a2-3)Gal(b1-3)GalNAc(b1-3)Gal(a1-4)Gal(b1-4)Glc
# How it was run: as §1
binder,measurement,setting,value
B1,glycan array binding signal (z-score),[1],-0.301
same,glycan array binding signal (z-score),[2],-0.344
same,glycan array binding signal (z-score),[3],-0.373
same,glycan array binding signal (z-score),[4],-0.377
same,glycan array binding signal (z-score),[5],4.56
same,glycan array binding signal (z-score),[6],0.692
same,glycan array binding signal (z-score),[7],5.88
same,glycan array binding signal (z-score),[8],2.48
same,glycan array binding signal (z-score),[9],1.12
same,glycan array binding signal (z-score),[10],2.46
same,glycan array binding signal (z-score),[11],5.46
same,glycan array binding signal (z-score),[12],6.17
same,glycan array binding signal (z-score),[13],1.74
same,glycan array binding signal (z-score),[14],0.345
same,glycan array binding signal (z-score),[15],-0.059
same,glycan array binding signal (z-score),[16],-0.294
same,glycan array binding signal (z-score),[17],-0.291
same,glycan array binding signal (z-score),[18],-0.009
same,glycan array binding signal (z-score),[19],1.05
same,glycan array binding signal (z-score),[20],0.427
same,glycan array binding signal (z-score),[21],-0.39
same,glycan array binding signal (z-score),[22],-0.349
same,glycan array binding signal (z-score),[23],0.157
same,glycan array binding signal (z-score),[24],-0.359
same,glycan array binding signal (z-score),[25],-0.294
same,glycan array binding signal (z-score),[26],-0.355
same,glycan array binding signal (z-score),[27],-0.283
same,glycan array binding signal (z-score),[28],-0.365
same,glycan array binding signal (z-score),[29],-0.385
same,glycan array binding signal (z-score),[30],-0.093
same,glycan array binding signal (z-score),[31],-0.264
same,glycan array binding signal (z-score),[32],-0.385
same,glycan array binding signal (z-score),[33],-0.374
same,glycan array binding signal (z-score),[34],-0.379
same,glycan array binding signal (z-score),[35],-0.181
same,glycan array binding signal (z-score),[36],-0.369
same,glycan array binding signal (z-score),[37],-0.399
